20 compounds from PubChem BioAssay (NCI) can be followed below.

SMILES strings stand for the structures. Several values for one entry are separate records, joined by “and”; a condition that tells them apart may be missing. Equal values may be shown once.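 Following 48 hours of exposure in 96-well plates, responses at five concentrations were used to interpolate endpoints linearly. GI50 = concentration required for 50% inhibition of growth. TGI marks complete inhibition of growth.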

The test concerns NCI-H322M lung. In words: NCI-60 cell line screen, 48 h.

`C=C1C(=O)O[C@H]2[C@H]1CC/C(COC(=O)CCCCCCC(=O)OC/C1=C/CC[C@@]3(C)O[C@H]3[C@H]3OC(=O)C(=C)[C@@H]3CC1)=C\CC[C@@]1(C)O[C@@H]21`: the GI50 was 13.3 µM and the TGI stood at 27.8 µM.
As to `COc1cc(Br)cc2cc(C3=CSC4=NCCN34)c(=O)oc12`, the TGI stood at 34.7 µM.
Still for that read-out and setting: the result for `O=C1Cc2c([nH]c3ccccc23)C2(CC3CCCCN13)OCCO2` (stereo unspecified) reads > 100 µM.
Turning to `Cn1cc(-c2nc3c(F)cc4[nH]ncc4c3c3c2CCCC3)c(C(F)(F)F)n1`, the GI50 is 17.9 µM and the TGI was 87.8 µM.
For `COC1=CC(c2ccc[nH]2)=N/C1=C\c1[nH]c(C)c(C(=O)CCCCC(=O)NCc2ccccc2)c1C` the same measures were 13.1 µM and 27.7 µM.
As for `C/C=C/[C@@H]1[C@H]2C(=O)[C@]3(Cl)[C@@H](/C=C/C)[C@@H]3C(=O)[C@@]12Cl`, the TGI is > 100 µM.
On the same count and under the same terms, then `O=C(c1ccccc1)C(C(=O)c1ccccc1)c1nc2ccccc2sc1=O`, with > 25 µM; and `COC(OC)(c1ccccc1)C(Br)Br`, with > 100 µM; and `CN(C)CCNC(=O)c1ccc(Cl)c2ccc(-c3ccccc3)nc12`, with 14.8 µM.
Still for that read-out and setting: then `CC1=CN(c2ccccc2)S2=C1c1sc3c(c1N2c1ccc(Br)cc1)CCCC3` (stereo unspecified), with > 100 µM; and `Cn1c(=O)c2nc(N3CCOCC3)cnc2n(C)c1=O`, with > 100 µM; and `NN/C(=N\S(=O)(=O)c1cc2ccccc2o1)Nc1ccc(Cl)cc1`, with > 100 µM.
Still for that read-out and setting: the result for `Nc1ncnc2c1ncn2C1OC(CSCc2ccc(Cl)cc2)C(O)C1O` (stereo unspecified) reads > 100 µM.
Consider `COc1ccc(NCc2cc(OC)c(OC)c(OC)c2)cc1`, for which the GI50 is 0.294 µM and 1.44 µM.
Take `S=C(/C=C1\SC(=Nc2ccccc2)C(=Nc2ccccc2)N1c1ccccc1)Nc1ccccc1`: the TGI was > 100 µM.
Consider `Clc1ccc(CCC(Cn2ccnc2)Sc2c(Cl)cccc2Cl)cc1` (stereo unspecified), for which the GI50 was 10.6 µM and the TGI worked out at 22.9 µM.
As to `COC(=O)c1c(OC(C)=O)ccc2c1c1c(OC(C)=O)c3ccccc3c(OC(C)=O)c1n2C`, the TGI is > 100 µM.
As for `O=S1CCN(Cc2ccc(-c3ccc4ncnc(Nc5ccc(OCc6ccccc6)c(Cl)c5)c4c3)o2)CC1`, the GI50 was 0.708 µM and the TGI is > 25 µM.
For the compound `CCCc1c(Cl)nc(Cl)nc1Cl`, the TGI turned out to be 19.6 µM.
Take `COc1ccc(C2CC(c3cc(Cl)c(C)cc3O)=NN2c2ccc(S(N)(=O)=O)cc2)cc1OC` (stereo unspecified): the GI50 was 4.45 µM and the TGI was 39.7 µM.
